Measured values: the supplement of paper PMC7826260
This is one part of the list. One pool of 16,384 single-stranded DNAs met each Rep nickase domain in vitro at 3 µM enzyme and 37 °C for 1 h; the strands have 90 letters, of which the middle is given. Uncut reads are compared with the no-enzyme pool on a log2 scale; uncut sequences lie near 0, cut ones below; no hit call is given. Shares of all reads are compared; values above 0 arise when much of the pool is cut.

tested on: T1, Rep nickase domain of wheat dwarf virus; assay: uncleaved DNA left, log2 of reads against the no-enzyme library (log2 ratio); higher = less cleavage (more negative = more Rep cleavage of the k-mer); sequences stand for … in CTCGTCCG…ACCGGAGA
T1 sequence (Rep 1-137, printed without the tag): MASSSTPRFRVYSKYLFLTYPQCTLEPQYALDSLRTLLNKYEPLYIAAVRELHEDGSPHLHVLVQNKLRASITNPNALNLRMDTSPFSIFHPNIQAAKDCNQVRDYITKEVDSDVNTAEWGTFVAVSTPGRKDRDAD
Protocol: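 A pool of 90-nt single-stranded DNAs with seven random bases just before the constant AC of the nick site (name = the seven bases) was cut by 3 µM recombinant His6-SUMO-tagged Rep nickase domain (300 nM DNA, 50 mM HEPES pH 8.0, 50 mM NaCl, 1 mM MnCl2, 1 h, 37 °C, three replicates). Uncut DNA was amplified and sequenced.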

Sequence	uncleaved DNA left (log2)
ATACATA	0.0944
GTGAGCG	-0.154
CACCATA	0.0326
CCTCGCA	-0.011
AGGTTGC	-0.0568
TGCCGTG	-0.172
GTCAGAG	0.0877
GCCAGGC	-0.0905
ATCCGGA	0.0386
GTTCGAG	0.166
GAGGATG	-0.0783
CGTCGTT	-0.156
CGAGTCA	-0.0411
GCAGTCG	0.022
TACCGTT	-0.248
ATGGGAA	-0.0621
ATAGCGC	-0.183
TCATGGA	-0.0514
GACCTTG	0.0152
AGTCTGT	0.0994

Sequence	uncleaved DNA left (log2)
TACTCTG	-0.00144
AGACTCA	-0.0618
GCGGAAG	-0.00285
CGTTAGT	0.0802
CTCGAGC	0.00327
TAACTCT	-3.67
CAGAAAC	0.0807
AACGGGG	0.203
ACCACCT	0.0597
TCACGCA	-0.2
TGTAGCG	-0.212
GTCCTTC	-0.0493
TTCACAG	-0.0415
TGTCCCC	0.0372
CTGAAGT	-0.0262
TGCACAG	-0.0588
CCTGGAA	-0.00839
TATCATG	-0.145
AATACTT	-0.304
GGCTTCG	0.0997
